Source: article PMC7067772 (2020)

B1: myc-tagged pendrin (pCMV-Myc-pendrin) [not stated] / V5-EphA2 (pcDNA3.2-V5-EphA2) [not stated] (parent complex)
chain 1: MAAPGGRSEPPQLPEYSCSYMVSRPVYSELAFQQQHERRLQERKTLRESLAKCCSCSRKRAFGVLKTLVPILEWLPKYRVKEWLLSDVISGVSTGLVATLQGMAYALLAAVPVGYGLYSAFFPILTYFIFGTSRHISVGPFPVVSLMVGSVVLSMAPDEHFLVSSSNGTVLNTTMIDTAARDTARVLIASALTLLVGIIQLIFGGLQIGFIVRYLADPLVGGFTTAAAFQVLVSQLKIVLNVSTKNYNGVLSIIYTLVEIFQNIGDTNLADFTAGLLTIVVCMAVKELNDRFRHKIPVPIPIEVIVTIIATAISYGANLEKNYNAGIVKSIPRGFLPPELPPVSLFSEMLAASFSIAVVAYAIAVSVGKVYATKYDYTIDGNQEFIAFGISNIFSGFFSCFVATTALSRTAVQESTGGKTQVAGIISAAIVMIAILALGKLLEPLQKSVLAAVVIANLKGMFMQLCDIPRLWRQNKIDAVIWVFTCIVSIILGLDLGLLAGLIFGLLTVVLRVQFPSWNGLGSIPSTDIYKSTKNYKNIEEPQGVKILRFSSPIFYGNVDGFKKCIKSTVGFDAIRVYNKRLKALRKIQKLIKSGQLRATKNGIISDAVSTNNAFEPDEDIEDLEELDIPTKEIEIQVDWNSELPVKVNVPKVPIHSLVLDCGAISFLDVVGVRSLRVIVKEFQRIDVNVYFASLQDYVIEKLEQCGFFDDNIRKDTFFLTVHDAILYLQNQVKSQEGQGSILETITLIQDCKDTLELIETELTEEELDVQDEAMRTLAS
chain 2: not shown

Variants of: B1
Assay: co-immunoprecipitation with densitometric quantification; n = 3; parent: 1; read off a plot

ratio to parent | Variant
~0.87 | chain 1 G497S
~0.77 | chain 1 H723R
~1.2 | chain 1 P123S
~0.85 | chain 1 N392Y
~0.03 | chain 1 Q446R
~0.85 | chain 1 T721M
~1.1 | chain 1 T416P
~0.03 | chain 1 A372V
~1.3 | chain 1 L236P
~0.12 | chain 1 L445W
~1.2 | chain 1 S666F
~1.2 | chain 1 V138F
~0.88 | chain 1 V653A
~0.13 | chain 1 G672E

Variants of: B1
Assay: as above
Remark: another data set of the same source

ratio to parent | Variant
~1 | chain 1 S166N
~0.9 | chain 1 L117F
